# Experimental data reported in PubChem BioAssay AID761 (NMMLSC, 2007).
# About 400 (0.21%) of roughly 190,000 compounds were called active. Inconclusive means that the source gave no clear call. Such entries were picked first, then a sample of the others.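 Rule for the calls: active = percent activity GTP binding at least 20 points away from the 100% baseline, either down as inhibitor or up as activator; inconclusive = compound flagged as likely green fluorescent from well-wide comparison; inactive = the rest.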
# Target: Cell division control protein 42 homolog (Homo sapiens) (UniProt P60953)
# Assay: wildtype Cdc42 fluorescent GTP binding changes, either direction – biochemical, multiplex bead flow cytometry, Bodipy-GTP, primary screen (AID 761);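 note: median bead fluorescence of bound Bodipy-FL-GTP at 100 nM; 0% = excess unlabeled GTP control and 100% = no compound control; below 100% means less GTP binding so inhibitor and above means activator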
# Conditions: GST-Cdc42 beads, at 10 µM, actives lie on both sides
# UniProt P60953, sequence (P60953 whole entry, looked up): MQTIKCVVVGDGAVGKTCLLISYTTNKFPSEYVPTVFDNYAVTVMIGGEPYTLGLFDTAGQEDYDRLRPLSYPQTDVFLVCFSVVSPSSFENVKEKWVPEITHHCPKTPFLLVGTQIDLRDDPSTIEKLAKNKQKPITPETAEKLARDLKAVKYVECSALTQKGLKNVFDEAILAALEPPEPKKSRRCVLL
row,SMILES,percent activity (GTP binding)
1,CCC(C)NC(=O)Nc1ccc(C)cc1C (centres undefined),inactive: 95%
2,O=[N+]([O-])c1ccc2nc(CCCc3nc4ccc([N+](=O)[O-])cc4[nH]3)[nH]c2c1,inconclusive: 97%
3,Cc1oc(-c2nc3ccccc3n2C)cc1C(=O)c1ccccc1,inactive: 101%
4,O=c1ccc(C(F)(F)F)cn1Cc1cc(=O)n2cc(Br)ccc2n1,inconclusive: 115%
5,Cc1onc(-c2ccccc2Cl)c1C(=O)NCc1cccs1,inconclusive: 107%
6,COc1ccc(Cl)cc1-c1nc(SCC(=O)N(C)CCC#N)n[nH]1,inconclusive: 93%
7,COC(=O)Nc1ccc(S(=O)(=O)N2CCCC(C(=O)NC3CCS(=O)(=O)C3)C2)cc1 (centres undefined),inactive: 105%
8,CCc1ccc(N=C2N=C(N)c3ccccc32)cc1,inconclusive: 105%
9,Cn1c(N)c(C(=O)COC(=O)[C@@H]2CCCN2S(=O)(=O)c2ccc(Cl)cc2)c(=O)n(C)c1=O,inactive: 89%
10,CN(C(=O)COC(=O)c1c[nH]c(=O)[nH]c1=O)C1CCCCC1,inconclusive: 106%
11,CCc1ccc(C(C(=O)NC2CCCC2)N(C(=O)/C=C/C(=O)Nc2cc(C)on2)c2ccccc2C)cc1 (centres undefined),inactive: 92%
12,O=C(Cn1cc2c(n1)CCCCC2)Nc1c(F)c(F)cc(F)c1F,inconclusive: 103%
13,COCCCNC(=O)Cn1cc(C(=O)C2CC2)c2ccccc21,inconclusive: 93%
14,CNC(=S)N(CCc1cccc(C)c1)Cc1cc2cc(OC)c(OC)cc2[nH]c1=O,inconclusive: 98%
15,O=C(c1ccccc1Cl)N(Cc1ccccc1F)N1C(=O)CCCC1=O,inactive: 98%
16,O=C(CC12CC3CC(CC(C3)C1)C2)NCC(c1ccc(F)cc1)N1CCOCC1 (centres undefined),inactive: 94%
17,O=C1CS/C(=C\[N+](=O)[O-])N1c1ccccc1,inactive: 106%
18,CC1CCCCC1NC(=O)Cn1nnc(-c2ccc(Cl)cc2)n1 (centres undefined),inconclusive: 104%
19,Cc1ccc(C)c(N2CCN(C(=O)CN(C)S(=O)(=O)c3ccc4c(c3)CCC(=O)N4)CC2)c1,active: 76%
20,O=C(O)CCCN1C(=O)/C(=C/c2ccc(-c3nc4ccccc4s3)o2)SC1=S,inconclusive: 78%
21,O=C(NNS(=O)(=O)c1ccc2ccccc2c1)c1cc(-c2ccccn2)nc2ccccc12,inconclusive: 97%
22,Cc1nc(/C=C\C(=O)O)c2cc(C)oc2n1,inactive: 98%
23,COc1ccc(C(=O)Nc2nc3ccccc3[nH]2)cc1S(=O)(=O)N1CCOCC1,active: 78%
24,COc1ccc(C2Nc3ccccc3C(=O)N2Cc2ccccc2)cc1COc1ccccn1 (centres undefined),inconclusive: 109%

row,SMILES,percent activity (GTP binding)
1,O=[N+]([O-])c1ccc(O)c(/C=N/NC2=NS(=O)(=O)c3ccccc32)c1,inconclusive: 91%
2,O=c1c2ccccc2c(/C=N/n2cnnc2)c(O)n1-c1ccccc1F,inconclusive: 90%
3,CCC1C(=O)CC(c2ccccc2)NC1c1ccccc1 (centres undefined),inconclusive: 97%
4,COc1ccc(-c2cc(N3C(=O)Nc4ccccc4N3O)n[nH]2)c(OC)c1,inconclusive: 82%
5,Cc1cc(N2CCOCC2)nc2ccc(NC(=O)CCC(=O)N3CCC(C)CC3)cc12,inconclusive: 104%
6,O=C(CCc1c[nH]c2ccccc12)NCc1ccco1,inconclusive: 93%
7,Cc1ccc(Nc2nc(COC(=O)COc3ccc(C=O)cc3)cs2)cc1,inconclusive: 100%
8,O=C(Cc1ccccc1)Nc1cccc(-c2nnc(-c3ccco3)o2)c1,inconclusive: 107%
9,OC(COc1ccc2c(c1)OCO2)CN1CCN(c2ccc(F)cc2)CC1 (centres undefined),inconclusive: 93%
10,Cn1cnnc1-c1cccc(NC(=O)c2cc(F)c(F)cc2Cl)c1,inactive: 99%
11,Cn1c(=O)c2c(nc(NCC3CCCO3)n2C)n(C)c1=O (centres undefined),inconclusive: 112%
12,O=C(O)CSc1ncnc2sc3c(c12)CCCC3,inconclusive: 93%
13,CNC(=S)NNC(=O)c1cccn(Cc2ccc(Cl)cc2Cl)c1=O,inconclusive: 105%
14,CC(C)Sc1nc(-c2ccccc2)cc(=O)[nH]1,inactive: 115%
15,O=C(CSc1ncccn1)NCc1cccc(Cl)c1,inconclusive: 94%
16,N#Cc1c(-c2ccco2)cc(-c2ccccn2)nc1N,inconclusive: 86%
17,O=C(Nc1ccccc1)c1ccc(Cn2cc(C(F)(F)F)ccc2=O)cc1,inconclusive: 107%
18,CC1(c2ccccn2)Nc2ccccc2-c2nc3ccccc3n21 (centres undefined),inconclusive: 110%
19,Cc1c(NC(=O)CCN2C(=O)c3ccccc3C2=O)c(=O)n(-c2ccccc2)n1C,inactive: 81%
20,O=C(CSc1ccccn1)N1CCc2ccccc21,inactive: 98%
21,O=C(CSc1nc(-c2ccccc2)cs1)N1CCN(C(=O)c2ccco2)CC1,inconclusive: 95%
22,N#CCC(=O)Nc1ncc(Cc2ccccc2Cl)s1,inconclusive: 93%
23,Cc1cc(C)c(C(=O)C2OC(=O)C(C)(C)C(=O)C2(C)C)c(C)c1 (centres undefined),inactive: 104%
24,FC(F)(F)c1cccc(NC(=S)NNC(=S)NCc2ccccc2)c1,inactive: 81%

row,SMILES,percent activity (GTP binding)
1,CCc1ccccc1NC1=NCC(=O)N1C1CCCC1,inactive: 93%
2,O=C(N/N=C(\c1ccccc1)c1ccccn1)c1cccc([N+](=O)[O-])c1,inconclusive: 81%
3,Nc1n[nH]c(-c2ccccc2)n1,inconclusive: 105%
4,CCOC(=O)c1c(NC(=O)c2c(-c3ccccc3)noc2C)sc(C)c1-c1ccccc1,inconclusive: 108%
5,Nc1ccc(S(=O)(=O)Nc2ccc(S(N)(=O)=O)cc2)cc1,inconclusive: 97%
6,CC(=O)c1cccc(NC(=O)Cn2cc3c(n2)CCCC3)c1,inconclusive: 103%
7,CCOC(=O)c1cc(NC(=O)Nc2cc(C)ccn2)c(C)nc1C,inconclusive: 93%
8,Clc1ccc(-c2n[nH]c3c2CCC3)cc1Cl,inconclusive: 100%
9,CCc1ccccc1NC(=O)N1C2CCCC1CC(NC(C)=O)C2 (centres undefined),active: 126% [activator]
10,O=C(COc1ccc(C(=S)N2CCOCC2)cc1)N1CCCC1,inconclusive: 103%
11,Oc1c(CN2CCN(c3ccccn3)CC2)cc(Cl)c2cccnc12,inconclusive: 98%
12,CC(=O)Nc1ccc(NC(=O)c2ccc(C)c(S(=O)(=O)Nc3cccc(C)c3)c2)cc1,inactive: 96%
13,COc1ccc(Cl)cc1NC(=O)CN1CCc2ccccc21,inactive: 97%
14,CC1(C)CC2CC(C)(CN2C(=O)c2cccs2)C1 (centres undefined),active: 133% [activator]
15,Nc1nnc(-c2ccc(Cl)cc2Cl)s1,inconclusive: 87%
16,CCOC(=O)C1CCCN(C(=O)CCCOc2cc(=O)n(C)c3ccccc23)C1 (centres undefined),inconclusive: 96%
17,CCCC/C(O)=C1\C(=O)CC(C)(C)CC1=Nc1ccccc1OC,inconclusive: 106%
18,COc1ccc(C2=Nn3c(nnc3-c3ccccc3)SC2)cc1OC,inactive: 80%
19,Nc1[nH]ncc1C(=O)Nc1cccc(C(F)(F)F)c1,inconclusive: 108%
20,COc1cc(CC(C#N)(CO)c2nc3ccccc3[nH]2)ccc1OC(F)F (centres undefined),inactive: 100%
21,Cc1nc2ccccc2nc(=O)c1NNc1ccc([N+](=O)[O-])cc1,inconclusive: 92%
22,N#Cc1ccc(-c2ccc(F)cc2)nc1Sc1ccccc1,inconclusive: 110%
23,CSc1nc2ccc(NC(=O)c3c(F)cccc3F)cc2s1,inconclusive: 96%
24,COc1ccc(NCc2nnc(SCC(=O)NNC(=O)c3ccc(C)cc3)n2C)cc1,inactive: 102%

row,SMILES,percent activity (GTP binding)
1,Cc1cc(C(=O)NNC(=S)NC(C)c2ccccc2)c2ccccc2n1 (centres undefined),inconclusive: 125%
2,N#CCc1nn(-c2ccccc2)c(N)c1C#N,inconclusive: 96%
3,N#C/C(=C\c1ccc(-c2ccc(C(=O)O)cc2)o1)c1nc2ccccc2[nH]1,active: 78%
4,CCOC(=O)N1CCC(Nc2ccc3nnc(-c4ccccc4)n3n2)CC1,inconclusive: 93%
5,Cc1ccc2cccc(OCC(=O)N3CC(C)CC(C)C3)c2n1 (centres undefined),inconclusive: 93%
6,Cc1cc(C)n(-c2nc(SCC(=O)Nc3nccs3)c3c4c(sc3n2)COC(C)(C)C4)n1,inconclusive: 99%
7,CN1CC(=O)NC1=NC(=O)c1ccc(Cl)c(S(=O)(=O)N2CCCCCC2)c1,inactive: 92%
8,O=[N+]([O-])c1ccc(C=Nc2ccc(Cl)cc2Cl)s1,inconclusive: 111%
9,O=C(Nc1cccnc1)c1ccc(Cl)c([N+](=O)[O-])c1,inactive: 96%
10,COC(=O)CSc1nc(C)cc(N2CCOCC2)n1,inactive: 100%
11,Cc1cc(-c2ccccc2)[nH]c(=O)c1S(=O)(=O)c1ccc(Cl)cc1,inconclusive: 102%
12,CC(=O)N/N=C/c1cc2c(cc1[N+](=O)[O-])OCO2,inactive: 97%
13,O=C(Cc1ccc(F)cc1)Nc1ccccc1Sc1ccccc1,inconclusive: 96%
14,O=C(COc1ccc(Cl)cc1Cl)N1CCCCCC1,inconclusive: 109%
15,CCN1CCN(CC(=O)N2N=C(c3ccc(OC)cc3)CC2c2ccc(OC)cc2)C(=O)C1=O (centres undefined),inactive: 98%
16,COc1ccc(-n2nc(C(=O)NCC(=O)Nc3ccccn3)c3ccccc3c2=O)cc1Cl,inconclusive: 113%
17,CC(=O)Nc1cn(C(C)=O)c(C)n1,inconclusive: 105%
18,Cc1nc2c(nnn2Cc2ccccc2)c(=O)[nH]1,inconclusive: 83%
19,CCCCn1c(=O)[nH]c(=O)c2c1nc(-c1ccc(C#N)cc1)n2C1CCCC1,inconclusive: 107%
20,CCOC(=O)N1CCN(C(=O)C(c2ccccc2)c2ccccc2)CC1,inconclusive: 105%
21,Cc1ccnc2nc(C(=O)OCCOc3ccc(Cl)cc3)nn12,inconclusive: 92%
22,O=C(/C=C/c1ccco1)Oc1cc(Br)cc(/C=N/NC(=O)c2ccccc2O)c1,inconclusive: 95%
